Results as given in paper PMC4336329 (PLoS ONE, 2015).
Out of some 310,000 compounds screened, about 2,200 (0.71%) showed an effect of 50% or more. Effects have a minus sign here. The list shows a part of the results.

Biological target: human ether-à-go-go-related gene (hERG) potassium channel (human, UniProt Q12809)
Test: primary screen, population patch clamp on CHO cells stably expressing hERG

Chain of human ether-à-go-go-related gene (hERG) potassium channel (Q12809 whole entry, looked up): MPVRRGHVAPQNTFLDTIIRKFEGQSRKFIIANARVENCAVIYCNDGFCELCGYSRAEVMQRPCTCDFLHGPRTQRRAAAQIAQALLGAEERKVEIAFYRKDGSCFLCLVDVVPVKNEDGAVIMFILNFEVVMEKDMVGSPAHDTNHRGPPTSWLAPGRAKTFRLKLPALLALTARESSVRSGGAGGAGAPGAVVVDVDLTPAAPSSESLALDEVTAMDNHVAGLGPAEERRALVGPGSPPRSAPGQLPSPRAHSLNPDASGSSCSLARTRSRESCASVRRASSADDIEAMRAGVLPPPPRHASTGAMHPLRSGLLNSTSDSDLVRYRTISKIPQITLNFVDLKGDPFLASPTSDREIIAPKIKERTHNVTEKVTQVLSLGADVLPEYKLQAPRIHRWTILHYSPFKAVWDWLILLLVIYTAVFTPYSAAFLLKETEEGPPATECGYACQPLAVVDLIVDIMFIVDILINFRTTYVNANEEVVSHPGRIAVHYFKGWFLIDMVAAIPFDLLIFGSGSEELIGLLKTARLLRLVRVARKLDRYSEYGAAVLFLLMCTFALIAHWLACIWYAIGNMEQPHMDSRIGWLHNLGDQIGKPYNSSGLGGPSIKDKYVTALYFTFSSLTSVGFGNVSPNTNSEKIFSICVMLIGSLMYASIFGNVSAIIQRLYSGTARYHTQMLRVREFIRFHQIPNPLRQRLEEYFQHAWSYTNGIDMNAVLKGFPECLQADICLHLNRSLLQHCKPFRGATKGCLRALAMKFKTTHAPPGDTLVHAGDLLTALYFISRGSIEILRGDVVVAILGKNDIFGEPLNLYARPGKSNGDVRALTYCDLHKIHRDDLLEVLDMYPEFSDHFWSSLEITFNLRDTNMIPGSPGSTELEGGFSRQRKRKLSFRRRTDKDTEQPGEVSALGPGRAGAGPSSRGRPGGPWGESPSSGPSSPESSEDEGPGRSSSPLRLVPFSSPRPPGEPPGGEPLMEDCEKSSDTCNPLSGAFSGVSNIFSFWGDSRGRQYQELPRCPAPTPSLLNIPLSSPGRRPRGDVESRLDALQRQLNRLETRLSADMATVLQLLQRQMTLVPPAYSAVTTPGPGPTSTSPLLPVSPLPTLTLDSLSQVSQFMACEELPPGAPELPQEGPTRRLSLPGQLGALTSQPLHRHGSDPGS

| SMILES | hERG current change (%, negative = inhibition) at 1uM |
| --- | --- |
| COC(=O)c1sccc1NC(=O)Nc1ccc(OC)c(OC)c1 | -22.5% |
| Cc1[nH]c(=O)[nH]c(=O)c1S(=O)(=O)N1CCC(C(=O)N2CCN(c3cccc(C(F)(F)F)c3)CC2)CC1 | 18.8% |
| CCOC(=O)N1CCN(C(=O)N2CCOCC2)CC1 | 14.3% |
| COc1ccc(NS(=O)(=O)c2ccc(Cl)s2)cn1 | 7.65% |
| Cc1cccc(OCC(=O)N(Cc2ccc(N(C)C)cc2)C2CCS(=O)(=O)C2)c1 (stereo not shown) | 7.82% |
| CSc1nc2ncc(C(=O)O)c(N)n2n1 | 8.23% |
| CCc1nnc(NC(=O)CSc2nnc(-c3ccccc3O)n2-c2ccc(C)cc2C)s1 | 17.3% |
| Nc1nc(-c2ccc(-n3nncc3-c3ccco3)cc2)cs1 | 6.48% |
| COc1ccc(C(=O)CSc2nc(N)nc(SC)c2C#N)cc1 | -2.25% |
| Nc1c(N2CCCCC2)c2ccccc2oc1=O | -2.07% |
| CCc1ccc(C(=O)OCC(=O)Nc2cccc(S(=O)(=O)NC3=NCCCCC3)c2)cc1 | 7.29% |
| COc1cc(OC)cc(C(=O)NCC2CCCN(C(=O)c3csc(C(C)C)n3)C2)c1 (stereo not shown) | 7.04% |
| C=CCN(C(=O)CCS(=O)(=O)c1cccc2nsnc12)c1ccccc1 | 5.05% |
| O=C(COC(=O)C1=COCCO1)Nc1ccc(OC(F)F)cc1 | 6.65% |
| COC(=O)C1=CN(c2cc(C)cc(C)c2)C=C(C(=O)OC)C1c1ccc(OC)c(O)c1 | 11.4% |
| CN1CCN(S(=O)(=O)c2ccc(NC(=O)c3cccc(S(=O)(=O)N4CCCC4)c3)cc2)CC1 | -0.705% |
| O=C(CCNC(=O)c1ccccc1Cl)Nc1cc(S(=O)(=O)N2CCOCC2)ccc1N1CCOCC1 | 8.53% |
| COc1ccc(CNc2ccc(C)cc2)cc1Br | 10.7% |
| COc1ccc(-c2noc(CN(C(=O)c3cccs3)C(C)C)n2)cc1 | -14.3% |
| CN(C)/C=C(\C#N)C(=O)c1cccc(Oc2ccc(Br)cc2)c1 | 4.56% |
| COc1ccc(NC(=O)N2CCOCC2)cc1 | 13.6% |
| COc1cccc(C(=O)NCC(c2cccs2)N2CCOCC2)c1 (stereo not shown) | 1.54% |
| Cc1cccc(C(=O)N2CCCC(Nc3ccc(C(C)C)cc3)C2)n1 (stereo not shown) | 3.61% |
| O=C(CN(Cc1ccc(Cl)cc1)C(=O)c1csnn1)NCc1ccc(F)cc1 | -14.8% |
| Cc1ccc(C(=O)NC2CCCc3c2cnn3-c2ccc(F)cc2F)cn1 (stereo not shown) | 13.2% |
